Reference: the supplement of paper PMC10369915
This is one part of the list. Rule as the data show it: active = 3.2 or more and inactive = the rest. The signal is at background level for most entries.

How the values were obtained:
Test in all cases: enrichment score (SH2-bound / input frequency) (ratio); bacterial display of known human phosphotyrosine sites (pTyr-Var adds point mutants) read by sequencing; higher = stronger binding; tyrosines were phosphorylated by kinases first
Conditions in all cases: peptide library: pTyr-Var
SHP2 C-SH2 domain E139D = target: SHP2 C-SH2 domain E139D
[1] = target: SHP2 C-SH2 domain wild-type
SHP2 N-SH2 domain L43F = target: SHP2 N-SH2 domain L43F
SHP2 N-SH2 domain T42A = target: SHP2 N-SH2 domain T42A
SHP2 N-SH2 domain T52S = target: SHP2 N-SH2 domain T52S
[2] = target: SHP2 N-SH2 domain wild-type

Measured: enrichment score
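Also: displayed peptides selected on beads carrying the immobilized SH2 domain, with library peptides lacking any tyrosine serving as negative controls.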

PRIKTYMRPSP [TDP1_Y497_H493R]
inactive: SHP2 C-SH2 domain E139D 0.814 | [1] 1.07 | SHP2 N-SH2 domain L43F 0.633 | SHP2 N-SH2 domain T42A 0.519 | SHP2 N-SH2 domain T52S 0.716 | [2] 0.629

PPPELYFVKVD [TERT_Y707]
inactive: SHP2 C-SH2 domain E139D 1.72 | [1] 0.99 | SHP2 N-SH2 domain L43F 1.08 | SHP2 N-SH2 domain T42A 1.43 | SHP2 N-SH2 domain T52S 1.27 | [2] 1.04

CEHRGSLYLAI [TEK_Y897_Y897S]
inactive: SHP2 C-SH2 domain E139D 0.955 | [1] 1.22 | SHP2 N-SH2 domain L43F 0.808 | SHP2 N-SH2 domain T42A 0.923 | SHP2 N-SH2 domain T52S 0.845 | [2] 1.11

RRNSPYSQTMK [TET2_Y819]
inactive: SHP2 C-SH2 domain E139D 0.377 | [1] 0.287 | SHP2 N-SH2 domain L43F 0.41 | SHP2 N-SH2 domain T42A 0.453 | SHP2 N-SH2 domain T52S 0.396 | [2] 0.366

HQEPVCSVAFS [TBL1X_Y509_Y509C]
inactive: SHP2 C-SH2 domain E139D 0.504 | [1] 0.757 | SHP2 N-SH2 domain L43F 0.649 | SHP2 N-SH2 domain T42A 0.567 | SHP2 N-SH2 domain T52S 0.85 | [2] 0.811

SGDDGYAKDAK [TENM4_Y1530]
inactive: SHP2 C-SH2 domain E139D 0.303 | [1] 0.4 | SHP2 N-SH2 domain L43F 0.336 | SHP2 N-SH2 domain T42A 0.346 | SHP2 N-SH2 domain T52S 0.351 | [2] 0.431

RRNTPYSQTMK [TET2_Y819_S817T]
inactive: SHP2 C-SH2 domain E139D 0.353 | [1] 0.276 | SHP2 N-SH2 domain L43F 0.415 | SHP2 N-SH2 domain T42A 0.391 | SHP2 N-SH2 domain T52S 0.421 | [2] 0.359

HRGFLYLAIEF [TEK_Y899_Y897F_YF]
inactive: SHP2 C-SH2 domain E139D 0.708 | [1] 0.791 | SHP2 N-SH2 domain L43F 0.441 | SHP2 N-SH2 domain T42A 0.518 | SHP2 N-SH2 domain T52S 0.414 | [2] 0.756

DGQFVYKLTDF [TBK1_Y153_S151F]
inactive: SHP2 C-SH2 domain E139D 0.993 | [1] 0.963 | SHP2 N-SH2 domain L43F 0.895 | SHP2 N-SH2 domain T42A 0.815 | SHP2 N-SH2 domain T52S 1.01 | [2] 0.9

SHMVDYQPFRK [TEX37_Y25_YF]
inactive: SHP2 C-SH2 domain E139D 0.866 | [1] 0.865 | SHP2 N-SH2 domain L43F 0.736 | SHP2 N-SH2 domain T42A 0.687 | SHP2 N-SH2 domain T52S 0.903 | [2] 1.09

DFPIGYPSFLA [TBCK_Y153_YF]
inactive: SHP2 C-SH2 domain E139D 0.461 | [1] 0.538 | SHP2 N-SH2 domain L43F 0.466 | SHP2 N-SH2 domain T42A 0.458 | SHP2 N-SH2 domain T52S 0.377 | [2] 0.63

SHMVDYQPYRK [TEX37_Y25]
inactive: SHP2 C-SH2 domain E139D 0.7 | [1] 0.758 | SHP2 N-SH2 domain L43F 0.622 | SHP2 N-SH2 domain T42A 0.727 | SHP2 N-SH2 domain T52S 0.789 | [2] 0.81

VSAPEYGPKLK [TBC1D14_Y46_L41V]
inactive: SHP2 C-SH2 domain E139D 0.538 | [1] 0.776 | SHP2 N-SH2 domain L43F 0.664 | SHP2 N-SH2 domain T42A 0.949 | SHP2 N-SH2 domain T52S 0.644 | [2] 0.762

CEHRGHLYLAI [TEK_Y897_Y897H]
inactive: SHP2 C-SH2 domain E139D 0.768 | [1] 0.757 | SHP2 N-SH2 domain L43F 0.53 | SHP2 N-SH2 domain T42A 0.725 | SHP2 N-SH2 domain T52S 0.545 | [2] 0.853

TAGFSYEKWEI [TEC_Y360]
inactive: SHP2 C-SH2 domain E139D 1.2 | [1] 0.966 | SHP2 N-SH2 domain L43F 0.906 | SHP2 N-SH2 domain T42A 1.16 | SHP2 N-SH2 domain T52S 0.98 | [2] 0.932

LSAPEYGPKLK [TBC1D14_Y46]
inactive: SHP2 C-SH2 domain E139D 0.726 | [1] 0.506 | SHP2 N-SH2 domain L43F 0.679 | SHP2 N-SH2 domain T42A 0.597 | SHP2 N-SH2 domain T52S 0.67 | [2] 0.615

CEHRGCLFLAI [TEK_Y897_Y897C_YF]
inactive: SHP2 C-SH2 domain E139D 1.68 | [1] 1.71 | SHP2 N-SH2 domain L43F 1.78 | SHP2 N-SH2 domain T42A 1.32 | SHP2 N-SH2 domain T52S 1.43 | [2] 1.76

SHMVNYQPYRK [TEX37_Y25_D24N]
inactive: SHP2 C-SH2 domain E139D 0.639 | [1] 0.508 | SHP2 N-SH2 domain L43F 0.539 | SHP2 N-SH2 domain T42A 0.448 | SHP2 N-SH2 domain T52S 0.712 | [2] 0.403

KFANSYRMEPL [TCTE3_Y87]
inactive: SHP2 C-SH2 domain E139D 0.813 | [1] 0.701 | SHP2 N-SH2 domain L43F 0.806 | SHP2 N-SH2 domain T42A 0.673 | SHP2 N-SH2 domain T52S 0.78 | [2] 0.668

CEHRGYLFLAI [TEK_Y897_YF]
inactive: SHP2 C-SH2 domain E139D 0.773 | [1] 0.919 | SHP2 N-SH2 domain L43F 0.741 | SHP2 N-SH2 domain T42A 0.707 | SHP2 N-SH2 domain T52S 0.559 | [2] 0.845

TDVSLYPSGGT [TENM4_Y399]
inactive: SHP2 C-SH2 domain E139D 0.502 | [1] 0.299 | SHP2 N-SH2 domain L43F 0.421 | SHP2 N-SH2 domain T42A 0.463 | SHP2 N-SH2 domain T52S 0.666 | [2] 0.591

DPNQQYYIAMD [TBX15_Y159_H156N]
inactive: SHP2 C-SH2 domain E139D 0.533 | [1] 0.617 | SHP2 N-SH2 domain L43F 0.561 | SHP2 N-SH2 domain T42A 0.498 | SHP2 N-SH2 domain T52S 0.649 | [2] 0.498

TDISLYPSGGT [TENM4_Y399_V396I]
inactive: SHP2 C-SH2 domain E139D 0.626 | [1] 0.684 | SHP2 N-SH2 domain L43F 0.687 | SHP2 N-SH2 domain T42A 0.636 | SHP2 N-SH2 domain T52S 0.7 | [2] 0.674

ETCLAYREKRI [TEKT1_Y118]
inactive: SHP2 C-SH2 domain E139D 0.401 | [1] 0.343 | SHP2 N-SH2 domain L43F 0.495 | SHP2 N-SH2 domain T42A 0.319 | SHP2 N-SH2 domain T52S 0.581 | [2] 0.54

HQEPVYSVAFS [TBL1X_Y509]
inactive: SHP2 C-SH2 domain E139D 0.809 | [1] 0.765 | SHP2 N-SH2 domain L43F 0.873 | SHP2 N-SH2 domain T42A 0.706 | SHP2 N-SH2 domain T52S 0.801 | [2] 1.02

DFPMGYPSYLA [TBCK_Y153_I151M]
inactive: SHP2 C-SH2 domain E139D 0.89 | [1] 0.614 | SHP2 N-SH2 domain L43F 0.754 | SHP2 N-SH2 domain T42A 0.764 | SHP2 N-SH2 domain T52S 0.901 | [2] 0.788

EERNTYVNTTL [TEK_Y1102_K1100N]
inactive: SHP2 C-SH2 domain E139D 1.61 | [1] 1.69 | SHP2 N-SH2 domain L43F 1.62 | SHP2 N-SH2 domain T42A 2.14 | SHP2 N-SH2 domain T52S 1.72 | [2] 1.66

CEHRGYLYLAI [TEK_Y897]
inactive: SHP2 C-SH2 domain E139D 0.626 | [1] 0.754 | SHP2 N-SH2 domain L43F 0.649 | SHP2 N-SH2 domain T42A 0.749 | SHP2 N-SH2 domain T52S 0.665 | [2] 0.939

VNTMLYEKFTF [TEK_Y1108_T1106M_YF]
inactive: SHP2 C-SH2 domain E139D 1.77 | [1] 1.77 | SHP2 N-SH2 domain L43F 1.48 | SHP2 N-SH2 domain T42A 1.47 | SHP2 N-SH2 domain T52S 1.37 | [2] 1.68

PHIKTYMRPSP [TDP1_Y497]
inactive: SHP2 C-SH2 domain E139D 0.815 | [1] 0.974 | SHP2 N-SH2 domain L43F 0.672 | SHP2 N-SH2 domain T42A 0.655 | SHP2 N-SH2 domain T52S 0.644 | [2] 0.693

DKMEAYNIDET [TEKT4_Y210]
inactive: SHP2 C-SH2 domain E139D 0.557 | [1] 0.412 | SHP2 N-SH2 domain L43F 0.407 | SHP2 N-SH2 domain T42A 0.44 | SHP2 N-SH2 domain T52S 0.581 | [2] 0.819

HRGYLYLAIEY [TEK_Y899]
inactive: SHP2 C-SH2 domain E139D 0.34 | [1] 0.803 | SHP2 N-SH2 domain L43F 0.361 | SHP2 N-SH2 domain T42A 0.329 | SHP2 N-SH2 domain T52S 0.476 | [2] 0.548

LSTPEYGPKLK [TBC1D14_Y46_A43T]
inactive: SHP2 C-SH2 domain E139D 0.727 | [1] 0.602 | SHP2 N-SH2 domain L43F 0.761 | SHP2 N-SH2 domain T42A 0.603 | SHP2 N-SH2 domain T52S 0.593 | [2] 0.724

CEHRGCLYLAI [TEK_Y897_Y897C]
inactive: SHP2 C-SH2 domain E139D 1.05 | [1] 1.3 | SHP2 N-SH2 domain L43F 1.16 | SHP2 N-SH2 domain T42A 0.977 | SHP2 N-SH2 domain T52S 1.09 | [2] 1.16

HRGCLYLAIEF [TEK_Y899_Y897C_YF]
inactive: SHP2 C-SH2 domain E139D 0.338 | [1] 0.797 | SHP2 N-SH2 domain L43F 0.859 | SHP2 N-SH2 domain T42A 0.625 | SHP2 N-SH2 domain T52S 0.999 | [2] 0.837

DFPMGYPSFLA [TBCK_Y153_I151M_YF]
inactive: SHP2 C-SH2 domain E139D 0.681 | [1] 0.704 | SHP2 N-SH2 domain L43F 0.677 | SHP2 N-SH2 domain T42A 0.663 | SHP2 N-SH2 domain T52S 0.55 | [2] 0.594

SDYSSYARTSI [TERT_Y949]
inactive: SHP2 C-SH2 domain E139D 0.596 | [1] 0.641 | SHP2 N-SH2 domain L43F 0.529 | SHP2 N-SH2 domain T42A 0.509 | SHP2 N-SH2 domain T52S 0.416 | [2] 0.67
